# Inconclusive results, whose numbers are uncertain, are shown with a selection of clear calls. Potencies of inconclusive entries are left out as doubtful fits. Calls of active or inactive are those of the source. Calls come from the whole dose curve; as a rule, active = well fitted inhibition curve with a large enough effect; inconclusive = small, poorly fitted or top-dose-only effect; inactive = flat fitted curve, though single readings scatter.
# System: Trypanosoma brucei pyruvate kinase (TbPYK)
# Assay: qHTS of Trypanosoma Brucei Inhibitors: Orthogonal Assay for Cherry-picked Compounds; note: nearly all actives have a fitted effect of over 75% in size
# Conditions: recombinant TbPYK, ADP-Glo luminescence, 60 min; activity change, negative = inhibition: at 76.9 µM (top of the series)
# Source text: Members of the Trypanosomatidae family of parasitic protozoans cause a spectrum of diseases throughout the tropical and subtropical world. Sleeping sickness, caused by two subspecies of Trypanosoma brucei, is endemic to areas of sub-Saharan Africa, while Chagas' disease, a manifestation of Trypanosoma cruzi infection, is prevalent throughout Central and South America. In addition, many species of Leishmania are responsible for a range of cutaneous and visceral diseases, causing ulcers, destructive lesions and kalaazar, a lethal infection of the viscera. These diseases cause severe public health and economic burdens on populations that are often already caught in a tragic cycle of poverty, poor nutrition and disease. Collectively, parasites of the trypanosomatid family infect 30 million people worldwide (~500 million live in endemic areas), and account for ~130K deaths annually. Existing treatments have developed little in the past 50 years, and suffer from toxicity, poor efficacy and resistance; the goal of this project is to develop lead drugs that will be suitable for entry into pre-clinical trials. […] Glycolysis in axenically cultured T. cruzi, representing the intracellular pathogenic stage, is also essential for these parasites. {Engel, 1987} This project aims to discover and optimize selective inhibitors of the glycolytic enzyme pyruvate kinase (PYK) from Trypanosoma brucei, the parasite that causes sleeping sickness. […] Trypanosomatid PYKs show significant differences from their human counterparts including only 47-50% sequence identity and different allosteric and activation properties.{Callens, 1992} To this end, a qHTS was done against the MLSMR to discover inhibitors. To confirm activity of the cherrypicked compounds, an orthogonal assay was developed. While the primary qHTS provides a luminescence-based detection of TbPyK by measuring ATP production, the orthogonal assay will measure the amount of ADP substrate remaining. Decrease in activity signal indicative of inhibition of T. brucei proliferation is the desired outcome for this assay. NIH Molecular Libraries Probe Production Network [MLPCN] NIH Chemical Genomics Center [NCGC] Grant: MH095452 PI Name: Malcolm Walkinshaw, University of Edinburgh
# Briefly, 2 uL of substrate/TbPYK buffer (all columns but column 4) are dispensed into Greiner white solid-bottom 1536-well assay plates. Column 4 gets just buffer without enzyme. Compounds are then transferred via Kalypsys pin tool equipped with 1536-pin array (10 nL slotted pins, V&P Scientific, San Diego, CA). Following addition of compound, 1 uL of ADP (130 uM final concentration, columns 1-48) is added to initiate the reaction. The plates are then incubated at room temperature for 60 minutes. ADP-Glo (Promega) reagent I is added (2.5 uL) and plates incubated for 10 minutes. ADP-Glo reagent II is then added (5 uL), followed by a 10 minute room temperature incubation, before being transferred to a ViewLux high-throughput CCD imager (PerkinElmer), wherein single end-point measurements of luminescence are acquired using a clear filter. All reagents are diluted in an assay buffer consisting of 50 mM TEA (pH 7.2), 100 mM KCl, 10 mM MgCl2, 0.05% BSA and 0.01% Tween-20.
# % is set by controls: 0 for no effect and ±100 for the full control effect; potency is the fitted concentration of half-maximal effect; tags give direction and shape of the fitted curve.
Structure (SMILES),Potency,"activity change, negative = inhibition"
Cc1ccc(CNC(=O)C2CCN(S(=O)(=O)c3cccs3)CC2)o1,"inconclusive [inhibitor, partial curve]",–
CCOC(=O)c1c(NS(=O)(=O)c2ccc(Br)cc2)sc2c1CCC2,"inconclusive [inhibitor, partial curve, poor fit]",–
COc1cc(/C=C/c2sc3ccccc3[n+]2CCCS(=O)(=O)[O-])ccc1O,inactive,–
Clc1ccc(CSc2nccn2Cc2ccccc2)cc1,active: 1.12 µM,–
COC(=O)C1=C(C(=O)OC)C(C(=O)OC)C(C(=O)OC)C(C(=O)OC)(C(=O)OC)C(C(=O)OC)=C1C(=O)OC (stereo not given),active: 35.5 µM,–
CC(=O)C1=C(C)NC(SCC(N)=O)=C(C#N)C1C (stereo not given),"inconclusive [inhibitor, partial curve]",–
COc1ccc(-c2nnc3ccc(SCC(=O)N4CCN(c5ccccc5)CC4)nn23)cc1,"inconclusive [inhibitor, partial curve]",–
CCOC(=O)C1=C(C)N=c2s/c(=C/c3cccc([N+](=O)[O-])c3O)c(=O)n2C1c1ccc(OC)cc1OC (stereo not given),inactive,–
C=Cc1ccc(C(=O)N2CCCC(Nc3ccc4c(c3)OCCO4)C2)cc1 (stereo not given),"inconclusive [inhibitor, partial curve]",–
COc1cc(/C=C2\SC(c3ccc(C)cc3)=NC2=O)cc(OC)c1O,"inconclusive [inhibitor, partial curve]",–
Cc1ccc(S(=O)(=O)C=CS(=O)(=O)c2ccc(C)cc2)cc1,"inconclusive [inhibitor, single point]",–
NC(=O)Cn1c(=O)n(Cc2ccco2)c(=O)c2c3c(sc21)CCCCC3,"inconclusive [inhibitor, partial curve]",–
Cc1csc(N=Nc2ccc(N(C)C)cc2)[n+]1[O-],inactive,–
N#Cc1cccc(N=c2ssnc2Cl)c1,active: 7.08 µM,–
CCCCCC(=O)NNC(=S)NC(=O)c1cccc([N+](=O)[O-])c1,active: 14.1 µM,–
Cc1ccc(C2=NC(=O)/C(=C/c3cc(O)c(O)c(Br)c3)S2)cc1,"inconclusive [inhibitor, partial curve]",–
CCn1c(C)cc(C(=O)COC(=O)c2ccccc2[N+](=O)[O-])c1C,inactive,–
Cc1[nH]c2ccccc2c1C1=CC(=O)C=CC1=O,active: 2.82 µM,–
O=C1Nc2ccccc2C(=O)C1(Cl)Cc1ccccc1 (stereo not given),active: 12.6 µM,–
CCCn1c(SCC(=O)Nc2nc(-c3ccc(OC)cc3)cs2)nc2c1c(=O)n(C)c(=O)n2C,inactive,–

Structure (SMILES),Potency,"activity change, negative = inhibition"
O=C1C2C(C(=O)N1/N=C/c1ccc(N3CCCCC3)o1)C1C=CC2C12CC2 (stereo not given),active: 31.6 µM,–
CCOC(=O)C1=C(C)N=c2s/c(=C/c3cccc([N+](=O)[O-])c3O)c(=O)n2C1c1cc(OC)c(OC)c(OC)c1 (stereo not given),"inconclusive [inhibitor, partial curve]",–
N#Cc1cc(-c2ccccc2)nn1-c1ccccc1,active: 3.16 µM,–
CCOC(=O)C1CCCN(C(=O)c2ccc(-c3ccc([N+](=O)[O-])cc3)o2)C1 (stereo not given),"inconclusive [inhibitor, partial curve]",–
Cn1c(=O)[nH]c(=O)c2c1nc(SCC(=O)O)n2CCc1ccccc1,"inconclusive [inhibitor, single point]",–
CCN(CC)c1ccc(NC(=O)Cn2cc3c(n2)CCC(C)C3)c(C)c1 (stereo not given),"inconclusive [inhibitor, partial curve]",–
O=C(COc1cccc(C(F)(F)F)c1)N1CCN(c2ccc(O)cc2)CC1,"inconclusive [inhibitor, partial curve, poor fit]",–
Cc1cccc(-n2c(N)c(C(=O)N3CCN(C)CC3)sc2=S)c1,active: 5.01 µM,–
CC(C)(C)C1=Nn2c(nnc2-c2n[nH]c3c2CCC3)SC1,active: 10 µM,–
CCN1C(=O)/C(=C/C=C2\C=CN(CC)c3ccccc32)SC1=S,–,inconclusive: 1.41% [inhibitor]
CCOC(=O)N1CCN(S(=O)(=O)c2ccc(C(=O)NNc3nc4c(C)cccc4s3)cc2)CC1,"inconclusive [inhibitor, partial curve]",–
O=C(NC(=S)NNC(=O)c1ccccc1[N+](=O)[O-])c1ccc(Br)cc1,"inconclusive [inhibitor, single point]",–
COc1cc(/C=C2/C(=O)c3cccc([N+](=O)[O-])c3C2=O)c(Br)cc1O,inactive,–
S=C(c1ccc(Br)cc1)N1CCN(Cc2ccccc2)CC1,active: 8.91 µM,–
CS(=O)(=O)N1CCN(c2ccc([N+](=O)[O-])cc2C(F)(F)F)CC1,"inconclusive [inhibitor, single point]",–
Cc1ccc(CN(C)C(=O)c2cc(COc3cccc(C(F)(F)F)c3)on2)o1,active: 11.2 µM,–
Cc1ccc(-c2cc(C(=O)Nc3cccnc3)c3ccccc3n2)o1,inactive,–
O=c1nccc(N/N=C/c2ccccc2O)[nH]1,inactive,–
CC1=CC(=O)C=CC1=Nc1ccc(N(C)C)cc1,inactive,–
CC1(C(=O)NCCC(F)(F)F)Cc2c(-c3cccc(C(N)=O)c3)ccnc2O1 (stereo not given),inactive,–

# From PubChem BioAssay AID720584 (National Center for Advancing Translational Sciences (NCATS), 2013)
